The RNAGym collection of RNA variant scans (doi:10.1073/pnas.2313332121)
Variants at the background level are over-represented here.

B1: TPR 5TU (parent)
chain: GGAUCUUCUCGAUCUAACAAAAAAGACAAAUCUGCCACAAAGCUUGAGAGCAUCUUCGGAUGCAGAGGCGGCAGCCUUCGGUGGCGCGAUAGCGCCAACGUUCUCAACUAUGACACGCAAAACGCGUGCUCCGUUGAAUGGAGUUUAUCAUG

Variants of: B1
Experiment: polymerase ribozyme fitness, log enrichment relative to wild type (log ratio); higher = more active; in vitro selection for triplet polymerase activity
Outline: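 Fitness is a logarithmic measure of how a genotype enriched relative to the wild type, with replicate averages weighted by inverse variance. The logarithm uses base 2, and enrichment came from Illumina sequencing of input and output libraries. Those libraries were PCR-built, transcribed mutants of each subunit of a heterodimeric triplet polymerase ribozyme, passed through one triplicate in vitro selection round that included frozen incubation at −7 °C, gel excision of extended constructs and streptavidin-bead capture. Genotypes were kept only if they had ≥10 input reads and ≥1 read per output.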

C8A C36A and C8A A66U U78G G92U cannot be ordered by “polymerase ribozyme fitness (log ratio)” value: ≤ -4.2 for the first, ≤ -4.2 for the second.

C8A A12U G25A G86U C131G and C8A U15A C85G A91G C103G cannot be ordered by “polymerase ribozyme fitness (log ratio)” value: ≤ -4.2 for the first, ≤ -4.2 for the second.

C8G A17U G25C C87G C105A A106U and U7G C96U C129U A137G cannot be ordered by “polymerase ribozyme fitness (log ratio)” value: ≤ -4.2 for the first, ≤ -4.2 for the second.

C8G U9G A26G U31G U44A U61G G94C and C8A A40U G42A G68A C85U U144G cannot be ordered by “polymerase ribozyme fitness (log ratio)” value: ≤ -4.2 for the first, ≤ -4.2 for the second.

C8A A20U G48U C87G A91C C131A and C8A A24U A30G C57A A66U C75G C95G A107G cannot be ordered by “polymerase ribozyme fitness (log ratio)” value: ≤ -4.2 for the first, ≤ -4.2 for the second.

C8A A66C A121G G141C and C8A U31G U33G A40U C51U U77C C93G C108G C116U A147G cannot be ordered by “polymerase ribozyme fitness (log ratio)” value: ≤ -4.2 for the first, ≤ -4.2 for the second.

Compared with C8A A49G G71A C93U G152A, U7G G141C is higher in “polymerase ribozyme fitness (log ratio)” value: ≤ -4.2 for the first, -3.41 for the second.

C8G C149G and C8A A17G A60C C85U cannot be ordered by “polymerase ribozyme fitness (log ratio)” value: ≤ -4.2 for the first, ≤ -4.2 for the second.

C8A A20G G68C C85A G126A and C8G G50C G59U G86A A110G cannot be ordered by “polymerase ribozyme fitness (log ratio)” value: ≤ -4.2 for the first, ≤ -4.2 for the second.

C8G G70C C93U C99U U148G and U7G C10G U13C A23U G25C A29U C43U C57U C75U G80A C95G U101G G136C G143A cannot be ordered by “polymerase ribozyme fitness (log ratio)” value: ≤ -4.2 for the first, ≤ -4.2 for the second.

U7G G34A U55G G68C and C8G A47C C51A G94U A107G A142C C149G A150C cannot be ordered by “polymerase ribozyme fitness (log ratio)” value: ≤ -4.2 for the first, ≤ -4.2 for the second.

C8G A41U C96U A106U C123A G140C and C8G A41G C79A G84A A89U cannot be ordered by “polymerase ribozyme fitness (log ratio)” value: ≤ -4.2 for the first, ≤ -4.2 for the second.

C8G C10A A47C G48U U55A G84A U109G and C8G U15A A29C A60G G83A G100A A121G G141A cannot be ordered by “polymerase ribozyme fitness (log ratio)” value: ≤ -4.2 for the first, ≤ -4.2 for the second.

C8A G46U A49U G68C G86U C105A and C8A A30U C76G U78C C116U cannot be ordered by “polymerase ribozyme fitness (log ratio)” value: ≤ -4.2 for the first, ≤ -4.2 for the second.

C8A U55G C87U and U7G A37C A60C A73U C96A G128U cannot be ordered by “polymerase ribozyme fitness (log ratio)” value: ≤ -4.2 for the first, ≤ -4.2 for the second.

U7G C72A C87G A97G A120G and C8G A16C G25U A37C G59C A64U C87A G92C cannot be ordered by “polymerase ribozyme fitness (log ratio)” value: ≤ -4.2 for the first, ≤ -4.2 for the second.

C8G A24G G83C C93A U127G G140A A147G and C8A U53G A89U A91U C93G C105U G143U U146A G152A cannot be ordered by “polymerase ribozyme fitness (log ratio)” value: ≤ -4.2 for the first, ≤ -4.2 for the second.

C8G A41G C54G G68A G84A U104A C108U and C8G A28U G83A G94A cannot be ordered by “polymerase ribozyme fitness (log ratio)” value: ≤ -4.2 for the first, ≤ -4.2 for the second.

U7G A60G U90C C93G C125U G136A and C8A U53A C85U A98G C114A C125G cannot be ordered by “polymerase ribozyme fitness (log ratio)” value: ≤ -4.2 for the first, ≤ -4.2 for the second.

U7G A28G A30U C57A G94U U139C and U7G A26C U44A G74C A115C cannot be ordered by “polymerase ribozyme fitness (log ratio)” value: ≤ -4.2 for the first, ≤ -4.2 for the second.

C8A C14U C36U A47U C95A C96U A97G and C8G A147C cannot be ordered by “polymerase ribozyme fitness (log ratio)” value: ≤ -4.2 for the first, ≤ -4.2 for the second.

C8A A23G C57G G58A G68A C85G U109G and U7G C76U C93A cannot be ordered by “polymerase ribozyme fitness (log ratio)” value: ≤ -4.2 for the first, ≤ -4.2 for the second.

C8A C79G C93G and U7G A49C A64C G68U G92U cannot be ordered by “polymerase ribozyme fitness (log ratio)” value: ≤ -4.2 for the first, ≤ -4.2 for the second.

C8G A40G U53G U55G C85G G133U and C8G A30U C43G C51U U55A A89U cannot be ordered by “polymerase ribozyme fitness (log ratio)” value: ≤ -4.2 for the first, ≤ -4.2 for the second.

C8G A23U A28G C35A A47U C93G A107G C132G U135G A142C and C8G A106G A119U cannot be ordered by “polymerase ribozyme fitness (log ratio)” value: ≤ -4.2 for the first, ≤ -4.2 for the second.

C8A A17U A39U C85U U139A and C8A A49C U56A C93A G140U cannot be ordered by “polymerase ribozyme fitness (log ratio)” value: ≤ -4.2 for the first, ≤ -4.2 for the second.

C8A C14G A22U U55A G81C G92A C95U C103G A121G and C8G C57A G84U C114U U148C A150C cannot be ordered by “polymerase ribozyme fitness (log ratio)” value: ≤ -4.2 for the first, ≤ -4.2 for the second.

C8G C35U C93G and C8A G50A U53A G84A G117U U134G cannot be ordered by “polymerase ribozyme fitness (log ratio)” value: ≤ -4.2 for the first, ≤ -4.2 for the second.

C8G C18U A28G A49G C87G and C8G C27U A40C G42A G50A G58A G92A cannot be ordered by “polymerase ribozyme fitness (log ratio)” value: ≤ -4.2 for the first, ≤ -4.2 for the second.

C8G U9C A17G G81A G84U C103A U145A and C8G G83C A107C G143A A147U cannot be ordered by “polymerase ribozyme fitness (log ratio)” value: ≤ -4.2 for the first, ≤ -4.2 for the second.

U7G A49G A52G U55A G84C U90G G100U A113G and U7G C10A G34A G84A A98U G124C cannot be ordered by “polymerase ribozyme fitness (log ratio)” value: ≤ -4.2 for the first, ≤ -4.2 for the second.

C8G C27A G80U C85U C103U A113U G133A C149G and C8A A40C C69G G74A C96A A113C cannot be ordered by “polymerase ribozyme fitness (log ratio)” value: ≤ -4.2 for the first, ≤ -4.2 for the second.

U7G G11C G46A C87A A120U and C8G G50A A66C G84A cannot be ordered by “polymerase ribozyme fitness (log ratio)” value: ≤ -4.2 for the first, ≤ -4.2 for the second.

C8G A23U G50A G81U C85U C108A G141C and C8G A24C U61G cannot be ordered by “polymerase ribozyme fitness (log ratio)” value: ≤ -4.2 for the first, ≤ -4.2 for the second.

C8A A16U A73U G86U and C8G A39G C87A A138G cannot be ordered by “polymerase ribozyme fitness (log ratio)” value: ≤ -4.2 for the first, ≤ -4.2 for the second.

C8A A30C C51G A64U G94C G126C and U7G U53A U56A G88A cannot be ordered by “polymerase ribozyme fitness (log ratio)” value: ≤ -4.2 for the first, ≤ -4.2 for the second.

C8G A24U G25U G80A C96G C125A and U7G U9G A22G A24U G50A C95A G117C cannot be ordered by “polymerase ribozyme fitness (log ratio)” value: ≤ -4.2 for the first, ≤ -4.2 for the second.

C8G C27U U45A C93G C149G and C8A C43U U53G G84C U139A cannot be ordered by “polymerase ribozyme fitness (log ratio)” value: ≤ -4.2 for the first, ≤ -4.2 for the second.

C8A A12G A91U U148G and C8G A30G A64C A110U cannot be ordered by “polymerase ribozyme fitness (log ratio)” value: ≤ -4.2 for the first, ≤ -4.2 for the second.

C8G G50C U55G C87A G88U U101C A115U G128A and C8A C72G U127C G143U U144G cannot be ordered by “polymerase ribozyme fitness (log ratio)” value: ≤ -4.2 for the first, ≤ -4.2 for the second.

U7G C32U G74C G88A G94C G128A G140U and C8A A20U G42C C43G U44A A113U A142C cannot be ordered by “polymerase ribozyme fitness (log ratio)” value: ≤ -4.2 for the first, ≤ -4.2 for the second.

With C8G C38U A49C U90G C99A C103G C118U the “polymerase ribozyme fitness (log ratio)” value was ≤ -4.2.
